Test results from PubChem BioAssay AID652104 (National Center for Advancing Translational Sciences (NCATS), 2013).
Out of some 410,000 compounds screened, about 7,200 (1.8%) were called active. Inconclusive means that the source gave no clear call. Such entries were picked first, then a sample of the others. Calls come from the whole dose curve; as a rule, active = well fitted activation curve with a large enough effect; inconclusive = small, poorly fitted or top-dose-only effect, or another doubt; inactive = no such curve, though single readings can be large or run the other way. Potencies of inconclusive entries are left out as doubtful fits.

Experiment: qHTS of TDP-43 Inhibitors; note: nearly all actives have a fitted effect of over 50% in size; for growth rescue (activation): % of control where 0% means no effect
Settings: TDP-43 expressing yeast growth rescue, BacTiter-Glo, 24 h; growth rescue (activation): at 46.1 µM (top of the series) unless noted
Procedure, shortened: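 Cell-based yeast growth screen: TDP-43 expression induced in galactose, inoculum OD600=0.02 after raffinose pregrowth to mid-log. Read-out BacTiter-Glo luminescence at 24 hr, 30 deg C; inhibition of toxicity seen as signal increase.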
Potency is the fitted concentration of half-maximal effect; tags give direction and shape of the fitted curve.

Compound	Potency	growth rescue (activation)
CC1CC(C)(C)N2C(=O)C(=C(C#N)C#N)c3cccc1c32 (stereo unspecified)	inconclusive [activator, partial curve]	
Cc1cccc(C(=O)NCCc2nc3ccccc3n2Cc2ccccc2Cl)c1	inconclusive [activator, partial curve, poor fit]	
CCc1noc(C)c1C(=O)Oc1ccc(N(C)S(=O)(=O)c2ccc(C)c(C)c2)cc1	inconclusive [activator, single point]	
Cc1ccc(NC(=O)Nc2nnc(SCC(=O)N3CCCCC3)s2)cc1	inactive	
COc1cccc(C(=O)Nc2cc(NC(=O)c3cccs3)ccc2C)c1OC	active: 11.2 µM	
COc1cccc(N2CC(NC(=O)c3cc4ccccc4o3)CC2=O)c1 (stereo unspecified)	inconclusive [activator, single point]	
CC(C)COc1ccc(/C(=N/O)c2ccccc2)cc1	inconclusive [activator, single point]	
Cc1ccc(-n2ncc3c(Nc4ccc(Oc5ccccc5)cc4)ncnc32)c(C)c1	inconclusive [activator, partial curve]	
COC(=O)[C@]1(CC(C)C)N[C@H](c2ccc(-c3ccc(F)cc3)cc2)[C@@H]2C(=O)N(C)C(=O)[C@@H]21	inconclusive [activator, partial curve, poor fit]	
Cc1c(Br)c(C(=O)NCc2cc3cc(Cl)ccc3[nH]2)nn1C	inconclusive [activator, partial curve]	
CCOC(=O)N1CCN(C(=O)CCS(=O)(=O)c2ccc3c(c2)CCN3C(=O)CC)CC1	inactive	
COc1ccc(Cl)cc1NC(=O)CSc1nc(=O)n(Cc2ccco2)c2c1CCC2	inconclusive [activator, partial curve, poor fit]	
O=C(Nc1ccccc1F)c1ccc(Cn2cc(Br)cn2)cc1	inconclusive [activator, partial curve]	
Nn1c(SCc2ccccc2)nc2ccccc21	inconclusive [activator, full curve, poor fit]	
COc1ccc2c(C)c(CCC(=O)NCCc3ccccc3)c(=O)oc2c1	inconclusive [activator, single point]	
Brc1ccccc1OCCOc1cccc2cccnc12	inconclusive [activator, full curve]	
O=C(O)c1ccc(-c2ccco2)n1Cc1ccccc1	inconclusive [activator, partial curve]	
CC(/C=C/c1ccc(N(C)C)cc1)=N/N=C1/NC(=O)CC(C(=O)Nc2ccc(Cl)cc2)S1 (stereo unspecified)	inconclusive [activator, single point]	
O=C(c1ccccc1)c1cc([N+](=O)[O-])ccc1N1CCCC1	inconclusive [activator, partial curve]	
C/C(=N\NC(=O)c1ccc(NS(=O)(=O)c2cccs2)cc1)c1ccc(C(C)(C)C)cc1	inconclusive [activator, partial curve]	
COc1ccc(C(=O)NCCn2cc(SCC(=O)Nc3ccc4c(c3)OCCO4)c3ccccc32)cc1	inactive	
Cc1ccc(S(=O)(=O)N2CCN(C(=O)COC(=O)CC(C)c3ccccc3)CC2)c(C)c1 (stereo unspecified)	inconclusive [activator, single point]	

Compound	Potency	growth rescue (activation)
COc1cc(OC)cc(-c2c(-c3cccs3)c3cc(-c4ccc(CN5CCOCC5)cc4)ccc3n2C)c1	active: 22.4 µM	
CCOC(=O)c1sc(-c2cccc([N+](=O)[O-])c2)cc1N	inconclusive [activator, partial curve]	
Cc1cc2c(cc1S(=O)(=O)N(CCN(C)C)Cc1ccccc1)OCC(=O)N2	inactive	
CCOc1ccccc1N1CCN(C(=O)Nc2ccc(F)c(Cl)c2)CC1	inconclusive [activator, single point]	
O=C(CCl)N1N=C(c2ccco2)CC1c1cccs1 (stereo unspecified)	inconclusive [activator, partial curve]	
CCN(CC)CCNC(=O)COc1ccc(Cl)cc1Cl	inactive	
O=C(C1CCCO1)N1CCN(S(=O)(=O)c2cc(F)ccc2F)CC1 (stereo unspecified)	inconclusive [activator, single point]	
Nc1ccccc1-c1ccccc1N	inconclusive [activator, partial curve, poor fit]	
Cc1ccc(S(=O)(=O)N2CCN(C(=O)CCc3c[nH]c4ccccc34)CC2)cc1		inconclusive: 26.1% [activator]
CCOC(=O)C1CCCN(S(=O)(=O)c2cc(-c3onc(C)c3C)ccc2OC)C1 (stereo unspecified)	inconclusive [activator, partial curve]	
CCOc1ccccc1NC(=O)c1nc(S(=O)(=O)Cc2cccc(C)c2)ncc1Cl	inconclusive [activator, full curve, poor fit]	
O=S(=O)(NC1CCCC1)c1ccc(F)cc1F	inactive	
COc1cccc(NC(=O)C2COc3ccccc3O2)c1 (stereo unspecified)	inconclusive [activator, partial curve]	
Cc1cccc(C)c1NC(=S)NC(=O)c1ccc(Br)o1	inconclusive [activator, single point]	
CCn1c(SCc2c(F)cccc2Cl)nnc1-c1ccco1	inconclusive [activator, single point]	
O=[N+]([O-])c1ccc(-c2ccn[nH]2)o1	inconclusive [activator, partial curve]	
CC(C)c1ccc(C(CC(=O)c2ccc(Cl)cc2)C(=O)O)cc1 (stereo unspecified)	inconclusive [activator, single point]	
CCCS(=O)(=O)c1ccc(COC(=O)Cc2ccc([N+](=O)[O-])cc2)cc1	inconclusive [activator, single point]	
Cc1ccc(C(=O)N2CCN(c3ccc([N+](=O)[O-])cc3)CC2)o1	inconclusive [activator, single point]	
CC(=O)c1ccccc1OCc1ccc(S(=O)(=O)Cc2ccccc2)cc1	inconclusive [activator, partial curve]	
CCCCn1c(SCC(=O)c2ccc(OCC)cc2)nc2cc(S(N)(=O)=O)ccc21	inconclusive [activator, full curve]	
O=C(Nc1ccc2c(c1)CCCN2C(=O)c1cccs1)c1cccc(F)c1	inconclusive [activator, single point]	

Compound	Potency	growth rescue (activation)
CCOC(=O)c1cc(OC(=O)c2ccccc2F)n(-c2ccccc2)n1	inconclusive [activator, partial curve, poor fit]	
Oc1c(Cl)cc(Cl)cc1CNc1ccccn1	inconclusive [activator, partial curve]	
COc1cc(OC)cc(-c2nnc(SCc3cccnc3)o2)c1	inconclusive [activator, single point]	
N#Cc1c(-c2ccccc2F)cc(-c2cccnc2)nc1N	inconclusive [activator, single point]	
Cc1ccc(NC(=O)c2ccc(NC(=O)N3CCSc4ncccc43)cc2)c(Cl)c1	inactive	
O=C1C(N2CCOCC2)=C(n2nnc3ccccc32)C(=O)c2ccccc21	active: 22.4 µM	
Cc1ccc(CNC(=O)CCS(=O)(=O)c2cc3c4c(c2)CCN4C(=O)CC3)cc1	inactive	
Cc1ccc(-n2c(Cc3cccs3)nnc2SCC(=O)OC(C)C)cc1	inactive	
O=C(CN(C(=O)CNC(=O)c1ccco1)c1ccccc1F)NC1CCCCC1	inactive	
COc1cccc(CN(C(=O)COc2ccc(Cl)c(C)c2)C2CCS(=O)(=O)C2)c1 (stereo unspecified)	inactive	
CC(=O)Nc1ccc(-c2ccnc3c2CC(C(=O)Nc2cccnc2)O3)cc1 (stereo unspecified)	inconclusive [activator, single point]	
O=c1oc(=S)oc2c1[C@H](c1ccc(Cl)cc1)O[C@H](C1CCCC1)C2	inconclusive [activator, partial curve]	
Cc1cc(OCC(=O)NC(C)C)cc(C)c1Br	inconclusive [activator, single point]	
Cc1csc(Sc2ccc(C(=O)OCC(=O)Nc3ccc(OC(F)(F)F)cc3)cc2[N+](=O)[O-])n1	inconclusive [activator, single point]	
COc1ccccc1C(=O)NC(=O)COC(=O)Cc1n[nH]c(=O)c2ccccc12	inactive	
O=C(CCc1ccccc1)c1ccc2c(c1)OCCCO2	inconclusive [activator, partial curve]	
COc1cccc2cc(C(=O)N3CCN(c4cc(C)ccc4C)CC3)c(=O)oc12	inconclusive [activator, partial curve]	
CC(C)c1ccc(CC(=O)N2CCC2(C)C(=O)Nc2cnc3ccccc3c2)cc1 (stereo unspecified)	inconclusive [activator, partial curve]	
N/C(Cc1cccs1)=N\OC(=O)COc1ccc(Cl)cc1Cl	inconclusive [activator, partial curve]	
N#Cc1c(-c2ccccc2)nc(SCC(=O)Nc2nnc(C(F)(F)F)s2)[nH]c1=O	inactive	
CC(=O)c1cccc(OCc2cc(C(=O)N(C)Cc3ccc(C)o3)no2)c1	inconclusive [activator, partial curve]	
COc1ccc(-c2noc(C(=O)NCc3ccccc3Cl)n2)cc1OC	inconclusive [activator, partial curve]	
